For 89 compounds, survival results are on record in PubChem BioAssay AID463173 (ICCB-Longwood Screening Facility, Harvard Medical School, 2010).

Out of some 52,000 compounds screened, about 4,300 (8.3%) were called active. Rule as the data show it: active = survival mostly below about 52% (no sharp cut-off); inactive = mostly above about 56%. This is one part of the list.

The test system of this experiment is DeltatarO mutant. The experiment is described as follows: S. aureus survival, RN4220 and DeltatarO strains – OD600, teichoic acid synthesis inhibitors, primary screen (AID 463173). Conditions: S. aureus RN4220 wild type/DeltatarO growth, OD600, 18 h, stronger effect = lower value, screened at 18.75 µg/mL (by protocol).
As to `COc1ccc(OC)c(Nc2ncnc3c2cnn3-c2ccc(C)cc2)c1`, the survival was inactive: 55%.

As for `COc1ccc(-c2noc(CN3CCN(c4cccc(Cl)c4)CC3)n2)cc1`, the survival is active: 13%.

As for `CCN(CC)c1nn2c(=O)c(C(=O)NCc3cccc(C)c3)cnc2s1`, the survival was inactive: 76%.

Turning to `COc1ccc(Cn2c(SCc3ccc(C(=O)NCCc4ccccc4)cc3)nc3cccnc32)cc1`, the survival is inactive: 75%.

On to `Cn1c(=O)n(C/C=C/c2ccccc2)c(=O)c2c1nc1n2CCN1c1ccc(Cl)cc1`, for which the survival was inactive: 77%.

As to `CCn1cc(S(=O)(=O)c2ccc(C)cc2)c(=O)c2cc(F)c(N3CCCCCC3)cc21`, the survival was inactive: 90%.

Consider `CCOC(=O)c1[nH]c(C)c(CCC(=O)NCc2ccccc2C)c1C`, for which the survival was inactive: 102%.

For `Cn1nc(-c2ccccc2F)c2cc(C(=O)N3CCN(c4ccc(F)cc4)CC3)sc21`, the survival was inactive: 51%.

For the compound `Cc1nn(C(=O)c2cccc(F)c2)c(C)c1S(=O)(=O)N1CCCCCC1`, the survival is inactive: 83%.

Regarding `O=C1CCCN1Cc1ncnn1-c1ccccc1`, the survival was inactive: 113%.

As to `CCC(C)NC(=O)Cn1c(=O)n(Cc2ccc(C(=O)NCc3ccccc3OC)cc2)c(=O)c2ccccc21` (centres undefined), the survival is inactive: 84%.

For the compound `CCCN1CCN(CCCNC(=O)Cn2c(-c3cccs3)cc3ccccc32)CC1`, the survival is inactive: 85%.

Turning to `Cc1ccc(NC(=O)CSc2ncnc3c2sc2ccccc23)cc1C`, the survival is inactive: 113%.

With `Cn1cc(-c2cc3n(n2)CCC(=O)N3CC(=O)O)c2ccccc21`, the survival is inactive: 103%.

`Cc1ccccc1OCC(=O)N(Cc1ccc(N(C)C)cc1)CC1CCCO1` (centres undefined): the survival is inactive: 97%.

On to `Cc1cccc(CNC(=O)CCCN2C(=O)CCn3nc(-c4cn(C)c5ccccc45)cc32)c1`, for which the survival is active: -5%.

Consider `CCN(CC)c1ccc(NC(=O)c2cc(S(=O)(=O)N3CCc4ccccc43)cn2C)c(C)c1`, for which the survival is inactive: 66%.

Turning to `CCN1CCN(c2c(S(=O)(=O)c3ccccc3)cnc3ccc(Cl)cc23)CC1`, the survival was inactive: 124%.

Consider `O=C(C1CCC1)N1CCCc2cc(S(=O)(=O)Nc3ccc(F)cc3)ccc21`, for which the survival was inactive: 80%.

In the case of `COc1ccccc1N(CC(=O)Nc1ccc(C)c(Cl)c1)S(=O)(=O)c1ccc(C)cc1`, the survival is inactive: 57%.

On to `CCOc1ccc(CC(=O)NC2CC(=O)N(c3ccc(C)c(C)c3)C2)cc1` (centres undefined), for which the survival was inactive: 92%.

`C#CC(C)(CC)NC(=O)c1cc2c(n(-c3ccc(Cl)cc3)c1=O)CC(C)(C)CC2=O` (centres undefined): the survival was inactive: 67%.

Take `COCCn1c(C)cc(O)c(C(c2ccc(C)cc2)N2CCCCC2)c1=O` (centres undefined): the survival is inactive: 86%.

Turning to `CC(=O)N1CCc2cc(Br)cc(S(=O)(=O)N3CCN(c4cc(C)ccc4C)CC3)c21`, the survival is inactive: 78%.

Regarding `COc1ccc(Cl)cc1NC(=O)c1cc2ccc3ccc(C)[nH]c3c2n1`, the survival was inactive: 78%.

In the case of `O=C(c1cc(-c2ccc(Cl)cc2)on1)N(Cc1cccc(F)c1)Cc1ccco1`, the survival is inactive: 79%.

`Cn1c(=O)c2nc(SCC(=O)Nc3cc(Cl)cc(Cl)c3)n(C)c2n(C)c1=O`: the survival was inactive: 115%.

Take `CCc1ccc(NC(=O)CSc2c(C)cnc3c2c(=O)n(C)c(=O)n3C)cc1`: the survival is inactive: 83%.

Regarding `Cc1nc2sccn2c(=O)c1S(=O)(=O)NCc1ccc(F)cc1`, the survival is inactive: 51%.

Take `Cc1ccc(Cn2c(CNS(=O)(=O)c3ccc(C(C)(C)C)cc3)nc3cccnc32)cc1`: the survival was inactive: 108%.

With `COc1cc(NC(=O)c2cc(-c3cccs3)on2)c(OC)cc1Cl`, the survival is inactive: 52%.

Regarding `COc1ccc(CNc2nc(-c3ccco3)nn2C(=O)c2ccccc2Cl)cc1`, the survival is inactive: 56%.

As to `O=C(O)CCC(=O)N1CCN(Cc2ccc3c(c2)OCO3)CC1`, the survival is inactive: 75%.

As to `Cc1ccc(OCC(=O)OCc2cc(=O)n3nc(-c4cccs4)sc3n2)cc1`, the survival was inactive: 96%.

Consider `COc1cccc(NC(=O)C2CCCN(c3nnc(-n4c(C)ccc4C)s3)C2)c1` (centres undefined), for which the survival is inactive: 79%.

Turning to `COCCCn1c(=N)c(S(=O)(=O)c2ccccc2)cc2c(=O)n3cc(C)ccc3nc21`, the survival is inactive: 68%.

Consider `CC(C(=O)O)n1nc2ccccc2n1` (centres undefined), for which the survival is inactive: 95%.

For the compound `COc1ccccc1CNC(=O)CCCn1nc(C)c2sc3ccccc3c2c1=O`, the survival was inactive: 86%.

With `Cc1ccccc1OCC(=O)Nc1ccc2nc(SCC(=O)N(C)c3ccccc3)sc2c1`, the survival was inactive: 62%.

For `CC(C)(C)OC(=O)N1CCC(c2c(C(=O)N3CCN(c4ccc(Cl)cc4)CC3)cnn2-c2ccc(F)cc2F)CC1`, the survival was inactive: 84%.

As to `COCCCNC(=O)c1cnn(-c2ccccc2Cl)c1C1CCN(C(=O)OC(C)(C)C)CC1`, the survival was inactive: 77%.

On to `CC(=O)Nc1ccc(Cl)cn1`, for which the survival is inactive: 86%.

As for `COc1ccc(CNC(=O)C2CCN(C(=O)c3ccc(-n4ccc5ccccc54)s3)CC2)cc1`, the survival was inactive: 90%.

Consider `COc1ccc(CCNC(=O)c2cccc(-n3c(C)nc4cccnc43)c2)cc1OC`, for which the survival is inactive: 72%.

As for `COc1ccc(-c2cc3nc(-c4ccc(Br)cc4)cc(C(F)(F)F)n3n2)cc1`, the survival is inactive: 51%.

Take `COC(=O)c1ccc(NC(=O)CSc2cn(CC(=O)N3CCCCCC3)c3ccccc23)cc1`: the survival was inactive: 68%.

Consider `COc1ccc(NC(=O)C(=O)NCCc2ccc(OC)c(OC)c2)c(OC)c1`, for which the survival is inactive: 133%.

`Cc1c(NC(=O)c2cc(-c3ccc(O)cc3)on2)c(=O)n(-c2ccccc2)n1C`: the survival is inactive: 169%.

Turning to `COc1ccccc1CNc1nc2ccccc2c2nc(-c3cccnc3)nn12`, the survival was active: 48%.

For `O=C(COc1ccccc1Cl)OCc1cc(=O)n2nc(C3CC3)sc2n1`, the survival was inactive: 84%.

With `Cc1ccc(N2CC(C(=O)Nc3ccc(Cl)cc3Cl)CC2=O)cc1` (centres undefined), the survival was inactive: 77%.

Consider `Cc1cccc(Cn2c(SCc3ccc(C(=O)NC4CCCCC4)cc3)nc3cccnc32)c1`, for which the survival was inactive: 64%.

Consider `COc1ccccc1CNC(=O)CCCn1c(=O)c2ccccc2n(Cc2ccccc2F)c1=O`, for which the survival is inactive: 116%.

In the case of `COc1ccccc1NC(=O)CCNS(=O)(=O)c1ccc2c(c1)CCCC(=O)N2`, the survival was inactive: 81%.

`CCn1c(=O)cc(SCC(=O)N2CCN(c3cc(C)ccc3C)CC2)c2ccccc21`: the survival was inactive: 57%.

`C/C(=N/NC(=O)C(F)(F)F)c1cccs1`: the survival is inactive: 70%.

In the case of `CCOCN(C(=O)CSc1nc2ccccc2[nH]1)c1c(C)cccc1CC`, the survival was inactive: 135%.

`CCOC(=O)c1c(C)oc2nc(C)nc(NCc3cccc(OC)c3)c12`: the survival is inactive: 72%.

For `CCCCN(CC)C(=O)Cn1nc(C)c2c(C)n(-c3ccccc3)nc2c1=O`, the survival is inactive: 101%.

Turning to `Nc1nnc(C2CCCC2)s1`, the survival was inactive: 77%.

Turning to `Cc1cc2c(C)nc3ccc(C(=O)O)cc3c2o1`, the survival was inactive: 71%.

As to `CCN(CC)C(=O)Cn1cc(SCC(=O)Nc2ccc(C)cc2)c2ccccc21`, the survival is inactive: 67%.

As to `O=C1CCCc2c1cc(C(=O)Nc1ccc(Cl)cn1)c(=O)n2-c1ccccc1`, the survival was inactive: 66%.

Turning to `Cc1ccc(C)c(N2CCN(C(=O)Cn3nc(Cc4cccnc4)c4ccccc4c3=O)CC2)c1`, the survival was inactive: 66%.

As for `COc1ccc(C)cc1NC(=O)C(NS(=O)(=O)c1cccc2nsnc12)c1ccccc1` (centres undefined), the survival was inactive: 58%.

As to `CCOC(=O)N1CCc2c(sc3c2c(=O)n(-c2ccc(Cl)cc2)c(=O)n3CC(=O)Nc2ccccc2)C1`, the survival was inactive: 76%.

For `O=C(CSc1nnc(-c2ccccc2)o1)N1CCCc2ccccc21`, the survival is inactive: 80%.

Consider `CCOc1ccccc1CNC(=O)c1cnc2sc(N3CCC(C)CC3)nn2c1=O`, for which the survival is inactive: 87%.

Regarding `COc1ccc(C(=O)Nc2nnc(S(=O)(=O)N3CCOCC3)s2)cc1`, the survival is inactive: 99%.

Consider `CCc1ccc(-c2csc(-c3cc4cc(Br)ccc4oc3=O)n2)cc1`, for which the survival was inactive: 118%.

`Cc1nn(C(C)C(=O)NCc2cccc(F)c2)c(=O)c2c1sc1ccccc12` (centres undefined): the survival is inactive: 59%.

For the compound `Cc1nc2c3ccccc3nc(NNC(=O)CCC(=O)N3CCN(c4ccccc4F)CC3)n2n1`, the survival was inactive: 79%.

As to `COc1cc(C2c3c(oc4ccc(C)cc4c3=O)C(=O)N2Cc2ccc(F)cc2)ccc1O` (centres undefined), the survival was inactive: 87%.

As for `Cc1ccc(C(=O)Nc2ccccc2F)cc1S(=O)(=O)N1CCOCC1`, the survival was inactive: 52%.

As to `Cc1ccc(NC(=O)CCC(=O)N2CCOc3ccccc32)c(Cl)c1`, the survival is inactive: 68%.

As for `CCCC1(C(=O)OCC)NC(c2ccc(N(C)C)cc2)C2C(=O)N(c3ccc(OCC)cc3)C(=O)C21` (centres undefined), the survival is inactive: 99%.

`Cc1cccc(CNC(=O)C2CCN(c3nc4ccc(Cl)cc4[nH]3)CC2)c1`: the survival is inactive: 70%.

Take `Cc1cc(C)c2c(C)c(C(=O)N3CCC(c4nc5ccccc5s4)CC3)oc2c1`: the survival is inactive: 68%.

With `COc1ccc(CN(CC(=O)NC2CCCC2)C(=O)Cn2nnc(-c3ccc(OC)cc3)n2)cc1`, the survival is inactive: 97%.

Regarding `Cc1ccc(S(=O)(=O)CCc2nnc(NC(=O)C3CCCN3C(=O)NC3CCCCC3)s2)cc1` (centres undefined), the survival is inactive: 72%.

For `Cn1cccc1C(C(=O)NC1CCCCC1)N(C(=O)Cc1cccs1)c1ccccc1` (centres undefined), the survival was inactive: 75%.

As for `CCOC(=O)c1c(C)[nH]c(C)c1S(=O)(=O)NCC(=O)N(C)c1ccc(C)c(C)c1`, the survival is inactive: 124%.

Consider `O=C(Nc1c(C(=O)c2ccccc2)oc2ccccc12)c1cc(=O)c2ccccc2o1`, for which the survival is inactive: 52%.

With `COc1ccc(NC(=O)CSc2nc(-c3ccccc3)nc3cc(=O)[nH]n23)cc1`, the survival is inactive: 69%.

`CC(C)CCn1c(Br)nc2c1c(=O)n(Cc1ccccc1)c(=O)n2C`: the survival is inactive: 83%.

For `CSc1ncc(C(=O)Nc2ccccc2C(=O)c2ccccc2)c(C)n1`, the survival is inactive: 64%.

Regarding `CN(CCC#N)C(=O)C1CCN(S(=O)(=O)c2ccc(-n3cnnn3)cc2)CC1`, the survival is inactive: 91%.

For `CC(C)(C)c1ccc(NC(=O)CSc2nnc3scc(-c4ccccc4)n23)cc1`, the survival is active: 41%.

For `CCC(=O)Nc1ccc(-c2nc3c(C)cccc3c(=O)o2)cc1`, the survival is inactive: 94%.
